Test results: PubChem BioAssay AID887 (National Center for Advancing Translational Sciences (NCATS), 2007)
Out of some 74,000 compounds screened, about 1,100 (1.5%) were called active. This list was built around the results that the source calls inconclusive (neither active nor inactive); the mix of calls is not that of the screen. Calls come from the whole dose curve; as a rule, active = well fitted inhibition curve with a large enough effect; inconclusive = small, poorly fitted or top-dose-only effect; inactive = no such curve, though single readings can be large or run the other way. No potency is given beside an inconclusive call; the fits are too rough.
% is set by controls: 0 for no effect and ±100 for the full control effect; potency is the fitted concentration of half-maximal effect; tags give direction and shape of the fitted curve.
Note: nearly all actives have a fitted effect of over 55% in size.

These molecules were tested against Polyunsaturated fatty acid lipoxygenase ALOX15 (Homo sapiens) (UniProt P16050) (assay: qHTS Assay for Inhibitors of 15-hLO (15-human lipoxygenase)). Conditions: purified 15hLO-1, xylenol orange hydroperoxide absorbance; activity change, negative = inhibition: at 57.1 µM (top of the series) unless noted.
Procedure, shortened: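 Compounds were preincubated 15 min at room temperature with 40 nM purified human enzyme (25 mM Hepes pH 7.5, 0.01% Triton X-100); 50 uM arachidonic acid reacted 6 min. Fe-xylenol orange detection, 30 min, absorbance ratio 573/405 nm.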
With `Fc1ccc(-c2cc3nc4c(c(N5CCOCC5)n3n2)CCCC4)cc1` the Potency was inconclusive [inhibitor, partial curve]. With `N#Cc1c(NC(=O)COC(=O)C2CC3C=CC2C3)oc(-c2ccccc2)c1-c1ccccc1` (centres undefined) the Potency was inconclusive [inhibitor, partial curve]. In the case of `Cc1cccc(NS(=O)(=O)c2cc(C(=O)OCC(=O)Nc3cc(C)on3)ccc2C)c1`, the “activity change, negative = inhibition” value was inactive: -2.28%. With `Cc1ccc(S(=O)(=O)NC(=O)OC23COCN2COC3)cc1` the activity change, negative = inhibition was inactive: 3.6% [at 11.4 µM]. `O=C(Sc1nnnn1C1CCCCC1)c1cccs1` was tested, and the Potency was inconclusive [inhibitor, partial curve]. In the case of `Cc1cccc2cc3c(N)c(C(=O)N4CCOCC4)sc3nc12`, the Potency was inconclusive [inhibitor, partial curve]. With `O=c1c(-c2ccccc2)nc2cnc(N3CCNCC3)nc2n1-c1ccccc1` the Potency was active: 0.316 µM. With `CCCC(=O)c1cc(O)c(O)cc1O` the Potency was active: 3.98 µM. `Cc1cc(N2CCOCC2)nc2cc(O)ccc12` was tested, and the Potency was inconclusive [inhibitor, full curve, poor fit]. `O=C1[C@H]2[C@H]3[C@H](O)[C@H](O)C/C(=N/OC[C@@H](O)COCc4ccco4)[C@H]3CC[C@@H]2C(=O)N1C1CCCCC1` was tested, and the activity change, negative = inhibition was inactive: 3.2% [at 11.4 µM]. With `COC(=O)COc1ccc(S(=O)(=O)NCCC2=CCCCC2)cc1C` the Potency was active: 6.31 µM. With `CCN(CC)C(=O)c1cc2sc3ccccc3c2s1` the Potency was active: 25.1 µM. For `CS(=O)(=O)Nc1cccc(-c2nc(Nc3ccc(F)cc3)c3ccccc3n2)c1`, the Potency was inconclusive [inhibitor, single point]. For `Cc1ccc(C)c2[nH]c(=O)c(CN(Cc3ccc4c(c3)OCO4)Cc3nnnn3Cc3ccco3)cc12`, the Potency was active: 25.1 µM. For `COc1ccc(C(=O)Nc2ccc(Cl)cn2)cc1Cl`, the Potency was inconclusive [inhibitor, single point]. For `CCOC(=O)Cn1c(CN2CC(C)OC(C)C2)nc2c1c(=O)n(C)c(=O)n2C` (centres undefined), the Potency was active: 7.94 µM. With `COc1cccc(N2CCN(C(=O)c3ccc4nc(N5CCCCC5)sc4c3)CC2)c1` the “activity change, negative = inhibition” value was inactive: -10.9%. `NC(=O)c1c(NC(=O)c2cccs2)sc2c1CCCCCC2` was tested, and the Potency was inconclusive [inhibitor, single point]. In the case of `C=CC[C@@H]1C=C[C@@H](O/N=C\[C@@H](NS(=O)(=O)c2ccc(C)cc2)[C@H](C)/C=C\CC(=O)OC)[C@@H](CO)O1`, the activity change, negative = inhibition was inactive: 8.5% [at 11.4 µM]. For `COc1ccc2[nH]cc(CCNc3nc(-c4c(C)noc4C)nc4ccccc34)c2c1`, the Potency was inconclusive [inhibitor, single point]. For `O=C(c1ccco1)N1CCN(Cc2ccccc2C(F)(F)F)CC1`, the activity change, negative = inhibition was inactive: -17% [at 11.4 µM]. For `Cc1cc(-c2nsc(=O)o2)c(S(C)(=O)=O)s1`, the Potency was inconclusive [inhibitor, partial curve]. For `Cc1ccc(-n2c(C)c3c(C)nnc(C)c3c2C)cc1`, the Potency was inconclusive [inhibitor, single point]. With `N[C@H](CC(=O)O)C(=O)O` the “activity change, negative = inhibition” value was inactive: 8.56% [at 25.6 µM]. With `COc1cccc(NC(=O)Cc2c(O)c3ccccc3[nH]c2=O)c1` the “activity change, negative = inhibition” value was inactive: 3.12%. `COc1cc(O)c2c(=O)cc(-c3ccc(OC)c(-c4c(O)cc(O)c5c(=O)cc(-c6ccc(O)cc6)oc45)c3)oc2c1` was tested, and the Potency was inconclusive [inhibitor, partial curve]. With `Cc1cc(O)c(-c2cc(C(=O)Nc3ccc(S(=O)(=O)N4CCOCC4)cc3)[nH]n2)cc1C` the Potency was inconclusive [inhibitor, partial curve]. `CCOC(=O)N1CCC(=C2c3ccc(Cl)cc3CCc3cccnc32)CC1` was tested, and the Potency was inconclusive [inhibitor, single point]. `COc1ccc(-c2nc3cnc(N4CCN(C)CC4)nc3n(C3CC3)c2=O)cc1` was tested, and the “activity change, negative = inhibition” value was inactive: -14.8%. In the case of `COc1ccccc1NC(=O)CSc1nnc(Cc2cccn2C)n1CCc1ccccc1`, the Potency was inconclusive [inhibitor, partial curve]. `COc1ccc(NC2c3ncccc3C(=O)N2Cc2ccccc2)c(OC)c1` (centres undefined) was tested, and the “activity change, negative = inhibition” value was inactive: -28.9%. In the case of `O=C(c1ccc(Cl)cc1Cl)N1CCC(c2nc3c(nnn3Cc3ccco3)c(=O)[nH]2)CC1`, the Potency was inconclusive [inhibitor, single point]. `CCCNC(=O)OC[C@@H]1O[C@H](CCO/N=C(\C)CCN2CCc3nc(CC)c(CC)cc3C2)C=C[C@@H]1Oc1ccc(OC)cc1` was tested, and the activity change, negative = inhibition was inactive: 6.6% [at 11.4 µM]. For `CCOc1ccccc1Nc1ncnc2ccccc12`, the Potency was inconclusive [inhibitor, single point]. In the case of `CC1CCCN(C(=O)c2cc3c(-c4ccc(Cl)cc4)nn(C)c3s2)C1` (centres undefined), the “activity change, negative = inhibition” value was inactive: 1.07%. With `Cc1nc2ncnn2c(N2CCN(C(c3ccccc3)c3ccccc3)CC2)c1C` the Potency was inconclusive [inhibitor, full curve, poor fit]. `COCCn1c(-c2ccc(-c3ccccc3Cl)o2)nc2c1c(=O)[nH]c(=O)n2CC(C)C` was tested, and the Potency was inconclusive [inhibitor, single point]. For `O=S(=O)(c1ccccc1)N1CCC[C@@]2(CCN(c3ccccc3)C2)C1`, the “activity change, negative = inhibition” value was inactive: -16.7%. `COc1ccc2c(c1)-c1nc(NC(=O)c3cccs3)sc1CC2` was tested, and the Potency was active: 12.6 µM. With `CCOc1cc(N2CCOCC2)c(OCC)cc1NC(=O)CCS(=O)(=O)c1ccc(Cl)cc1` the “activity change, negative = inhibition” value was inactive: -2.31%. `COC(=O)N1CCC2(CCCN(c3ccc(-c4ccccc4)cc3)C2)CC1` was tested, and the Potency was inconclusive [inhibitor, single point]. In the case of `Cc1cccc(-n2nnc(C(=O)Nc3ccc(F)cc3)c2N)c1`, the Potency was inconclusive [inhibitor, partial curve]. `c1cncc(-c2nccc(NCc3cccs3)n2)c1` was tested, and the Potency was inconclusive [inhibitor, single point]. `c1nc(N2CCCC2)c2[nH]cnc2n1` was tested, and the “activity change, negative = inhibition” value was inactive: 2.99%. `C[N+](C)(C)c1cc2c(nn1)Nc1ccccc1S2` was tested, and the Potency was inconclusive [inhibitor, single point]. `O=C(O)CCSc1nc2ccccc2s1` was tested, and the “activity change, negative = inhibition” value was inactive: -1.28%. `O=C(CCN1C(=O)c2ccccc2C1=O)N1CCN(C(=O)c2ccccc2)CC1` was tested, and the Potency was inconclusive [inhibitor, single point]. `COc1cc(OC)c2cc(-c3ccncc3)cnc2c1` was tested, and the Potency was inconclusive [inhibitor, partial curve]. `O=c1c(-c2cccs2)nc2cnc(Oc3cccc(Cl)c3)nc2n1C1CC1` was tested, and the “activity change, negative = inhibition” value was inactive: -16.3%. `CCN(CC)S(=O)(=O)c1ccc(C(=O)NC2=C(C(=O)OC)SCC2)cc1` was tested, and the “activity change, negative = inhibition” value was inactive: -19.8%. For `O=C1c2ccccc2NC(c2ccc(Cl)cc2Cl)N1O` (centres undefined), the Potency was active: 15.8 µM. For `Cc1cccc(S(=O)(=O)c2c(N)n(/N=C/c3ccco3)c3nc4ccccc4nc23)c1`, the “activity change, negative = inhibition” value was inactive: -21.5%. In the case of `Nc1c(C(=O)OCC2CCCO2)c2nc3ccccc3nc2n1C1CCCC1` (centres undefined), the “activity change, negative = inhibition” value was inactive: -2.86%. For `N#Cc1cccc(NC(=O)Nc2cccs2)c1`, the Potency was inconclusive [inhibitor, single point]. In the case of `CC(C)NC(=O)C1CCN(C(=O)C(C(=O)c2ccccc2)n2cc(Cl)ccc2=O)CC1` (centres undefined), the Potency was inconclusive [inhibitor, partial curve]. With `Cc1ccccc1-c1ccc2ncnc(-n3ccnc3)c2c1` the Potency was inconclusive [inhibitor, single point]. In the case of `CN(C)c1ccc(NC(=O)Cn2ncn3c(cc4ccccc43)c2=O)cc1`, the Potency was inconclusive [inhibitor, full curve]. With `CCN(CC)c1ccc2c(c1)CCCN2` the Potency was inconclusive [inhibitor, single point]. In the case of `O=C(c1noc2c1CCc1ccccc1-2)N1CCCc2ccccc21`, the Potency was inconclusive [inhibitor, single point]. `CCCCCCN(C(=O)CCCCCN1C(=O)NC(c2ccc(-c3ccccc3)cc2)C(C(=O)OCc2ccccc2)=C1C)C(C)C(=O)NCCCC` (centres undefined) was tested, and the Potency was inconclusive [inhibitor, single point]. `Nc1ccc(Nc2ccccc2N)cc1` was tested, and the Potency was inconclusive [inhibitor, full curve]. In the case of `O=C(Nc1cccnc1)c1cc2c(ccc3ccccc32)o1`, the Potency was inconclusive [inhibitor, single point]. `CNC1C(O)[C@@H]2OC(O[C@@H]3C(O)C(O)C(N)C[C@H]3N)C(N)C[C@H]2O[C@H]1O[C@@H]1OC(CO)C(N)C(O)C1O` (some centres undefined) was tested, and the “activity change, negative = inhibition” value was inactive: 34.3%. `O=C1Nc2ccc(S(=O)(=O)N3CCCCCC3)c3cccc1c23` was tested, and the Potency was active: 15.8 µM. In the case of `CO[C@H]1/C=C/O[C@@]2(C)Oc3c(C)c(O)c4c(O)c(c(/C=N/N5CCN(C)CC5)c(O)c4c3C2=O)NC(=O)/C(C)=C\C=C\[C@H](C)[C@H](O)[C@@H](C)[C@@H](O)[C@@H](C)[C@H](OC(C)=O)[C@@H]1C`, the Potency was inconclusive [inhibitor, partial curve, poor fit]. `CN(C)c1ncc2nc(-c3ccccc3)c(=O)n(C[C@H]3CCCO3)c2n1` was tested, and the Potency was inconclusive [inhibitor, partial curve]. `O=C(c1ccccc1-c1nc(-c2ccc(Cl)cc2)no1)N1CCCC1` was tested, and the Potency was inconclusive [inhibitor, single point]. With `O=C(Nc1nc(-c2ccc3c(c2)OCO3)cs1)C1COc2ccccc2O1` (centres undefined) the Potency was inconclusive [inhibitor, single point]. In the case of `CN1CCc2c(sc3c2C(=O)NC(/C=C/c2ccco2)N3)C1` (centres undefined), the Potency was inconclusive [inhibitor, partial curve].
